Results reported in patent US20110060124A1, “HLA-BINDING PEPTIDES, PRECURSORS THEREOF, DNA FRAGMENTS AND RECOMBINANT VECTORS THAT CODE FOR THOSE PEPTIDE SEQUENCES” (priority 2004, published 2011).
At least one peptide structure holds a part that was inferred or is arguable (an end, a ring closure or a residue). Some compounds share one wording; it may come from a single statement. Peptide text beside a SMILES is read from it.

Assays:
[1] = system: HLA-A24 type molecule, product of the HLA-A*2402 gene; experiment: Experiment of binding peptide to HLA-A24 type molecule (C1R-A24 cells, flow cytometry, Kd); parameters: species or system human; conditions: −log Kd value (Kd in molar concentration)
[2] = system: HLA-A type molecule; experiment: Binding experiment, summary statements for HLA-A type molecule (A24 or A2); parameters: species or system human; conditions: qualitative statement

Compound | BINDING EXPERIMENT DATA ([1]; HCV D90208 strain (Table 1)) | binding to a HLA-A type molecule (in words) [2] | BINDING EXPERIMENT DATA ([1]; HCV D89815 strain (Table 2)) | BINDING EXPERIMENT DATA ([1]; HCV pBRT703′X strain (Table 3))
CC[C@H](C)[C@H](NC(=O)[C@H](CO)NC(=O)[C@H](Cc1ccccc1)NC(=O)[C@H](Cc1ccccc1)NC(=O)[C@H](Cc1c[nH]cn1)NC(=O)[C@@H](NC(=O)[C@H](CCSC)NC(=O)[C@@H](N)CC(C)C)[C@@H](C)O)C(=O)N[C@@H](CC(C)C)C(=O)O [compound 18] (H-LMTHFFSIL-OH) | 5.9169 | experimentally confirmed to bind |  | 
CC[C@H](C)[C@H](NC(=O)[C@H](Cc1c[nH]c2ccccc12)NC(=O)[C@H](CCC(N)=O)NC(=O)[C@H](Cc1c[nH]cn1)NC(=O)[C@H](CC(C)C)NC(=O)[C@H](CCCNC(=N)N)NC(=O)[C@H](CCCCN)NC(=O)[C@H](CC(C)C)NC(=O)[C@@H](N)CC(C)C)C(=O)O [compound 19] (H-LLKRLHQWI-OH) | 6.857 | experimentally confirmed to bind |  | 
CSCC[C@H](NC(=O)[C@H](CO)NC(=O)[C@H](Cc1ccc(O)cc1)NC(=O)[C@H](Cc1ccc(O)cc1)NC(=O)[C@H](C)N)C(=O)N[C@H](C(=O)NCC(=O)N[C@@H](CC(N)=O)C(=O)N[C@@H](Cc1c[nH]c2ccccc12)C(=O)O)C(C)C [compound 22] (H-AYYSMVGNW-OH) | 6.47 | experimentally confirmed to bind |  | 
CC[C@H](C)[C@H](N)C(=O)N[C@@H](CC(C)C)C(=O)N[C@@H](CC(C)C)C(=O)NCC(=O)N1CCC[C@H]1C(=O)N[C@@H](C)C(=O)N[C@@H](CC(=O)O)C(=O)N[C@@H](CO)C(=O)N[C@@H](Cc1ccccc1)C(=O)O [compound 27] (H-ILLGPADSF-OH) | 5.502 | experimentally confirmed to bind |  | 
CC(C)C[C@H](NC(=O)[C@H](C)NC(=O)[C@@H](NC(=O)[C@H](Cc1c[nH]c2ccccc12)NC(=O)[C@H](CS)NC(=O)[C@H](CCCNC(=N)N)NC(=O)[C@H](CO)NC(=O)[C@H](Cc1ccccc1)NC(=O)[C@@H](N)CC(N)=O)C(C)C)C(=O)O [compound 37] (H-NFSRCWVAL-OH) | 6.283 | experimentally confirmed to bind |  | 
CC[C@H](C)[C@H](N)C(=O)N[C@H](C(=O)N[C@@H](Cc1ccc(O)cc1)C(=O)N[C@@H](CO)C(=O)N[C@H](C(=O)N[C@@H](Cc1ccc(O)cc1)C(=O)N[C@@H](CS)C(=O)N[C@@H](CCCCN)C(=O)N[C@@H](Cc1ccccc1)C(=O)O)[C@@H](C)O)[C@@H](C)O [compound 40] (H-ITYSTYCKF-OH) | 6.975 | experimentally confirmed to bind |  | 
CC[C@H](C)[C@H](NC(=O)[C@H](CCC(N)=O)NC(=O)[C@H](Cc1c[nH]c2ccccc12)NC(=O)[C@H](CCC(=O)O)NC(=O)[C@@H](NC(=O)[C@@H](NC(=O)[C@H](CO)NC(=O)[C@H](CC(C)C)NC(=O)[C@@H](N)CC(C)C)[C@@H](C)O)[C@@H](C)O)C(=O)O [compound 42] (H-LLSTTEWQI-OH) | 8.336 | experimentally confirmed to bind |  | 
CC[C@H](C)[C@H](NC(=O)[C@@H](N)C(C)C)C(=O)N[C@@H](CC(C)C)C(=O)N[C@@H](CC(=O)O)C(=O)N[C@@H](CO)C(=O)N[C@@H](Cc1ccccc1)C(=O)N[C@@H](CCC(=O)O)C(=O)N1CCC[C@H]1C(=O)N[C@@H](CC(C)C)C(=O)O [compound 45] (H-VILDSFEPL-OH) |  | experimentally confirmed to bind | 5.003 | 
CC(C)C[C@H](NC(=O)[C@H](CC(C)C)NC(=O)[C@@H]1CCCN1C(=O)[C@H](Cc1c[nH]c2ccccc12)NC(=O)[C@@H](NC(=O)CNC(=O)[C@H](Cc1ccc(O)cc1)NC(=O)[C@H](Cc1ccccc1)NC(=O)[C@H](C)N)C(C)C)C(=O)O [compound 49] (H-AFYGVWPLL-OH) |  | experimentally confirmed to bind | 7.7344 | 
CC(C)[C@H](NC(=O)[C@@H](NC(=O)[C@H](CS)NC(=O)[C@@H]1CCCN1C(=O)[C@H](Cc1ccc(O)cc1)NC(=O)[C@H](Cc1c[nH]cn1)NC(=O)[C@@H](N)Cc1c[nH]c2ccccc12)[C@@H](C)O)C(=O)N[C@@H](CC(N)=O)C(=O)N[C@@H](Cc1ccccc1)C(=O)O [compound 52] (H-WHYPCTVNF-OH) |  | experimentally confirmed to bind | 6.387 | 
CC[C@H](C)[C@H](NC(=O)CN)C(=O)N[C@@H](CC(C)C)C(=O)N1CCC[C@H]1C(=O)N[C@@H](Cc1ccccc1)C(=O)N[C@@H](Cc1ccccc1)C(=O)N[C@@H](CCSC)C(=O)N[C@@H](Cc1ccccc1)C(=O)N[C@@H](Cc1ccccc1)C(=O)O [compound 53] (H-GILPFFMFF-OH) |  | experimentally confirmed to bind | 7.696 | 
CC[C@H](C)[C@H](NC(=O)[C@H](CC(N)=O)NC(=O)[C@H](CCC(N)=O)NC(=O)[C@H](Cc1c[nH]cn1)NC(=O)[C@H](CC(C)C)NC(=O)[C@H](Cc1c[nH]cn1)NC(=O)[C@@H](NC(=O)[C@H](CC(C)C)NC(=O)CN)[C@@H](C)CC)C(=O)O [compound 54] (H-GLIHLHQNI-OH) |  | experimentally confirmed to bind | 5.856 | 
CSCC[C@H](NC(=O)[C@@H](N)CC(C)C)C(=O)N[C@@H](CS)C(=O)N[C@@H](C)C(=O)N[C@H](C(=O)N[C@@H](Cc1c[nH]cn1)C(=O)N1CCC[C@H]1C(=O)N[C@@H](CCC(=O)O)C(=O)N[C@@H](CC(C)C)C(=O)O)C(C)C [compound 55] (H-LMCAVHPEL-OH) |  | experimentally confirmed to bind | 6.591 | 
CC(C)C[C@H](NC(=O)[C@@H](NC(=O)[C@@H](N)[C@@H](C)O)C(C)C)C(=O)N[C@@H](C)C(=O)N[C@@H](CC(=O)O)C(=O)N[C@@H](Cc1ccccc1)C(=O)N[C@@H](CCCCN)C(=O)N[C@H](C(=O)N[C@@H](Cc1c[nH]c2ccccc12)C(=O)O)[C@@H](C)O [compound 56] (H-TVLADFKTW-OH) |  | experimentally confirmed to bind | 6.519 | 
CC(C)C[C@H](NC(=O)[C@@H]1CCCN1C(=O)[C@H](Cc1c[nH]c2ccccc12)NC(=O)[C@@H]1CCCN1C(=O)[C@H](Cc1ccc(O)cc1)NC(=O)CNC(=O)[C@@H]1CCCN1C(=O)[C@H](CCC(N)=O)NC(=O)[C@H](C)N)C(=O)O [compound 58] (H-AQPGYPWPL-OH) |  | experimentally confirmed to bind | 5.364 | 
CC(C)C[C@H](NC(=O)[C@@H]1CCCN1)C(=O)N[C@@H](CC(C)C)C(=O)N[C@@H](CCCNC(=N)N)C(=O)N[C@@H](CC(=O)O)C(=O)N[C@@H](CCC(=O)O)C(=O)N[C@H](C(=O)N[C@H](C(=O)N[C@@H](Cc1ccccc1)C(=O)O)[C@@H](C)O)C(C)C [compound 59] (H-PLLRDEVTF-OH) |  | experimentally confirmed to bind | 5.089 | 
CC[C@H](C)[C@H](N)C(=O)N[C@@H](CC(C)C)C(=O)N[C@@H](CCSC)C(=O)N[C@H](C(=O)N[C@@H](Cc1c[nH]cn1)C(=O)N[C@@H](Cc1ccccc1)C(=O)N[C@@H](Cc1ccccc1)C(=O)N[C@@H](CO)C(=O)N[C@H](C(=O)O)[C@@H](C)CC)[C@@H](C)O [compound 60] (H-ILMTHFFSI-OH) |  | experimentally confirmed to bind | 7.895 | 
CC[C@H](C)[C@H](NC(=O)[C@H](CC(C)C)NC(=O)[C@H](C)NC(=O)CNC(=O)[C@@H](NC(=O)[C@H](Cc1c[nH]c2ccccc12)NC(=O)[C@@H](NC(=O)[C@H](Cc1ccc(O)cc1)NC(=O)[C@@H](N)CO)[C@@H](C)O)[C@@H](C)O)C(=O)O [compound 61] (H-SYTWTGALI-OH) |  | experimentally confirmed to bind | 7.13 | 
CC(C)C[C@H](NC(=O)[C@@H]1CCCN1C(=O)[C@H](CCCCN)NC(=O)[C@H](CS)NC(=O)[C@H](C)NC(=O)[C@@H]1CCCN1C(=O)[C@H](C)NC(=O)[C@H](Cc1ccc(O)cc1)NC(=O)[C@@H](N)CCCNC(=N)N)C(=O)O [compound 71] (H-RYAPACKPL-OH) |  | experimentally confirmed to bind | 6.758 | 
CC[C@H](C)[C@H](NC(=O)[C@H](Cc1c[nH]c2ccccc12)NC(=O)[C@H](CC(=O)O)NC(=O)[C@H](Cc1c[nH]c2ccccc12)NC(=O)[C@@H](NC(=O)[C@H](CC(=O)O)NC(=O)[C@H](CCCNC(=N)N)NC(=O)[C@H](CC(C)C)NC(=O)[C@@H](N)Cc1c[nH]c2ccccc12)C(C)C)C(=O)O [compound 76] (H-WLRDVWDWI-OH) |  | experimentally confirmed to bind | 6.344 | 
CC[C@H](C)[C@H](N)C(=O)N[C@H](C(=O)N[C@@H](Cc1ccc(O)cc1)C(=O)N[C@@H](CO)C(=O)N[C@H](C(=O)N[C@@H](Cc1ccc(O)cc1)C(=O)NCC(=O)N[C@@H](CCCCN)C(=O)N[C@@H](Cc1ccccc1)C(=O)O)[C@@H](C)O)[C@@H](C)O [compound 107] (H-ITYSTYGKF-OH) |  | experimentally confirmed to bind |  | 6.374
CC(C)C[C@H](NC(=O)[C@H](Cc1c[nH]c2ccccc12)NC(=O)[C@@H](NC(=O)[C@H](CCCCN)NC(=O)[C@H](Cc1ccccc1)NC(=O)[C@H](CC(=O)O)NC(=O)[C@H](C)NC(=O)[C@H](CC(C)C)NC(=O)[C@@H](N)C(C)C)[C@@H](C)O)C(=O)O [compound 112] (H-VLADFKTWL-OH) |  | experimentally confirmed to bind |  | 6.634
